Data from patent publication US20200347138A1 (INDIAN INSTITUTE OF SCIENCE, published 2020).

Molecular target: T1, CR/FNII domain of canine DEC205, GST fusion protein (canine)
T1 construct: Expressed in E. coli BL21 from pGEX4T1, purified on GSH matrix as a 45 kDa GST fusion; exact limits of the insert are uncertain; also called canine CR/FNII; CR/FNII N-Terminal domain; not shown: glutathione S-transferase (GST) fusion partner from expression vector pGEX4T1
T1 chain: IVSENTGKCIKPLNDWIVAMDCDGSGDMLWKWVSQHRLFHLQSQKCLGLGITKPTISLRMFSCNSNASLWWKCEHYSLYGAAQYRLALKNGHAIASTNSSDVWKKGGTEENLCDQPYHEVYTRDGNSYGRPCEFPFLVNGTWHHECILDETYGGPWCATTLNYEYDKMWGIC
Experiment: SPR, Biacore 2000, CR/FNII immobilised on CM5 chip, ScFv-CS as analyte

B1: ScFv-CS 39 (yeast library ScFv 39 fused to Core Streptavidin) (scFv)
chain: ASQVQLQQSGPGLVRPSQTLSLTCDISGDSVSRDTAAWNWVRQSPWRGLEWLGRTYYRSEWKTDYAVSLKSRITINPDTSKSQFSLQLNSVTPEDTAVYYCARGWSGMDVWGQGTTVTVSAGSASAPTGILGSGGGGSGGGGSGGGGS[about 100 residues omitted here]ISFGQGTRLEIKSGILEQKLISEEDL[about 120 residues omitted here]
notes: domain: Core Streptavidin; The insert was PCR amplified from the yeast display vector, so flanking residues may differ from the entry; Purified on DEAE-Sephacel; not shown: histidine tag
Q: Which Kd does the source give for B1 here?
A: 500 pM
